Several values for one entry are separate records, joined by “and”; a condition that tells them apart may be missing. Identical values can stand only once. Screen size: about 48,000 compounds; about 1,200 (2.5%) were called active. Inconclusive results (about 2%) are left out.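 How the source made its calls: active means activation of at least 60% and not above a set upper limit (about 1 call in 100 departs from these limits); inconclusive means activation of 40% to 60%, or above that upper limit; inactive means activation under 40%.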 The list shows a part of the results.

Sequence of UniProt O75388 (O75388 whole entry, looked up, the tested form may be a part): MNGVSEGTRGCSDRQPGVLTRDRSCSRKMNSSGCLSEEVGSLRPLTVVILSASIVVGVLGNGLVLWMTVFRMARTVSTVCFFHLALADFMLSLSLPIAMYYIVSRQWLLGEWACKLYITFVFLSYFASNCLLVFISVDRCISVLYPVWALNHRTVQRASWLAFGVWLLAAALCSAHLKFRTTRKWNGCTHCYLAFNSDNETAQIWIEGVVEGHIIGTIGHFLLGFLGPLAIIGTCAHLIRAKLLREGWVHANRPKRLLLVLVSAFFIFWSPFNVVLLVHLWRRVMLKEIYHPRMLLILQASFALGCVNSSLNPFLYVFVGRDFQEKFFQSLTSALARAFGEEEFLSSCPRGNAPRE

This assay deals with Probable G-protein coupled receptor 32 (Homo sapiens) (UniProt O75388). As to the kind of experiment: qHTS for Agonists of Human Resolvin D1 Receptor DRV1. Further: 0% is about no effect. Conditions: CHO-K1 GPR32 beta-arrestin PathHunter luminescence, 90 min; at 76.9 µM; active compounds read high; zero percent set by DMSO-only wells. An outline of the steps:
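Agonism was scored by beta-Gal fragment complementation (chemiluminescent read, 1 h detection at ambient temperature) reporting beta-arrestin binding to GPR32 in engineered CHO-K1 cells. Compound treatment lasted 90 min at 37 C, normalized to a DMSO basal control.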
For orientation: Quantitative high-throughput screening tests each substance at several concentrations.
With `CC(C)NC[C@@H](O)c1ccc(O)c(O)c1`, the activation is inactive: 17.5%.
Turning to `CCn1nnc2cc(C(=O)Nc3cccc(C)c3C)ccc21`, the activation is inactive: 6.25%.
On to `Cc1ccc(C)c(N2CCN(S(=O)(=O)c3csc(C(N)=O)c3)CC2)c1`, for which the activation was inactive: 8.37%.
Take `OC(CN1CCC(Cc2ccc(F)cc2)CC1)c1ccc(Cl)cc1` (centres undefined): the activation is inactive: -27.8% and inactive: 5.17%.
In the case of `Cc1cccc(Oc2ccc(NC(=O)CCC(=O)OCC(=O)c3ccc(Br)cc3)cc2)c1C`, the activation was inactive: -44.2%.
For `Cc1ccc(C)c(CSc2cn(CCNC(=O)c3ccccc3F)c3ccccc23)c1`, the activation was inactive: -0.805%.
Consider `COc1cccc(C(C(=O)NCc2ccccc2)N(C(=O)Cn2nnc3ccccc32)c2cccc(C(C)=O)c2)c1` (centres undefined), for which the activation is inactive: -18.6%.
As to `COc1ccc(NC(=O)c2oc3ccc(S(=O)(=O)N4CCC5(CC4)OCCO5)cc3c2C)cc1Cl`, the activation is inactive: 5.95%.
In the case of `COc1ccc(Cc2c(C)nn(-c3nc(C)c(C(=O)Nc4ccc(C)cc4C)s3)c2C)cc1`, the activation is inactive: -4.43%.
For `COc1cc(C2c3c(-c4ccccc4O)n[nH]c3C(=O)N2CCO)ccc1OCC(C)C` (centres undefined) the value was inactive: -7.99%.
For `Nc1c(C(=O)Nc2ccccc2Cl)nnn1Cc1cccc(Cl)c1` the value was inactive: 35.9%.
Take `COc1cc(OC)cc(-c2nc3nc(C)c(CCC(=O)Nc4ccc(C)cc4)c(C)n3n2)c1`: the activation was inactive: 15%.
With `Cc1ccc(NCc2nc3ccccc3n2CCOc2ccccc2C)cc1`, the activation is inactive: -12.1%.
With `COc1ccc(NC(=O)Nc2cccc(C)n2)c(OC)c1`, the activation is inactive: -1.68%.
With `Cc1c2cnn(CC(=O)O)c(=O)c2c(C)n1Cc1cccc(Cl)c1`, the activation was inactive: -26.6%.
On to `O=C(CC1N=C2c3ccccc3N=C(SCc3ccc(Cl)cc3)N2C1=O)NC1CCCCC1` (centres undefined), for which the activation was inactive: -15%.
For the molecule `Cc1cc2c(cc1S(=O)(=O)CCC(=O)Nc1ccc(OC(F)(F)F)cc1)OCC(=O)N2`, the activation was inactive: 23.2%.
In the case of `COC(=O)c1cc(NC(=O)c2cnc(SC)nc2-c2ccccc2)cc(C(=O)OC)c1`, the activation was inactive: -20%.
For `Cc1c(CCNS(=O)(=O)c2ccccc2)sc2nc(-c3ccc(Cl)cc3)nn12` the value was inactive: 32.2%; for `CCNc1nc2c(c(=O)n(C)c(=O)n2C)n1CC(O)COc1ccccc1` (centres undefined), inactive: -4.83%; for `CC(=O)Oc1c(C)c(C)c2c(c1C)CC[C@@](C)(CCC[C@H](C)CCC[C@H](C)CCCC(C)C)O2`, inactive: 0.0002%.
Regarding `Cc1ccc(-c2cnc(NCc3ccc(C(C)C)cc3)n2C)cc1`, the activation is inactive: -44.5%.
For `O=C(NCc1cccc(Br)c1)c1ccc(-n2cnc3cccnc32)cc1` the value was inactive: -17.9%.
As for `CCOc1ccc(S(=O)(=O)c2cn(Cc3ccc(C)cc3)c3ccc(OC)cc3c2=O)cc1`, the activation was inactive: -7.96%.
With `CCOc1ccc2cc(-c3nnc(Nc4ccccc4F)s3)c(=O)oc2c1`, the activation was inactive: -7.99%.
Regarding `Cc1ccc(CNC(=O)COCc2cc(-c3ccc4c(c3)OCO4)on2)cc1`, the activation is inactive: -6.48%.
In the case of `COc1ccc(C(C(=O)NCc2ccccc2)N(C(=O)Cn2nnc3ccccc32)c2ccc(F)cc2)cc1` (centres undefined), the activation was inactive: -15.5%.
Turning to `Cc1cccc(-c2noc(CNC(=O)c3ccc(C)cc3C)n2)c1`, the activation is inactive: 8.43%.
As to `Cc1ccc(-n2ncc3c(N4CCC(C)CC4)ncnc32)cc1C`, the activation is inactive: 18.8%.
For `COc1ccc(NCc2nc3ccccc3n2CCOc2ccc(C)cc2)cc1` the value was inactive: 1.19%; for `Cc1ccc(Cl)cc1N1CCN(C(=O)c2cn(C)c3ccc(S(=O)(=O)N4CCC(C)CC4)cc3c2=O)CC1`, inactive: -6.35%; for `O=C(NCC(c1ccc(Cl)cc1)N1CCCCC1)c1ccccc1` (centres undefined), inactive: -16.8%.
Turning to `CCCOc1ccc(C(=O)N(Cc2cccs2)C2CCS(=O)(=O)C2)cc1` (centres undefined), the activation was inactive: -0.228%.
`Cc1cccc(NC(=O)c2ccc(F)c(S(=O)(=O)N(C)C3CCCCC3)c2)c1`: the activation is inactive: -21.9%.
As for `CC(=O)Nc1ccc(Nc2nc3ccc(C)cc3n3nnnc23)cc1`, the activation is inactive: 36.7%.
Regarding `CCOCCCNC(=O)C(c1ccc(Cl)cc1)N(Cc1ccc2c(c1)OCO2)C(=O)c1ccccc1O` (centres undefined), the activation is inactive: 1.86%.
For the molecule `COc1ccc(NC(=O)C(C)n2nc(C)c3c(C)n(-c4ccccc4)nc3c2=O)cc1Cl` (centres undefined), the activation was inactive: -12.4%.
With `Cc1ccc(C)c(OCCCn2c(-c3ccc(Cl)cc3)nc3ccccc3c2=O)c1`, the activation is inactive: 14.4%.
As for `COc1ccc(-c2nc(S(=O)(=O)c3ccccc3)c(N3CCCCC3)o2)cc1`, the activation was inactive: -6.81%.
With `CCN(Cc1nc(-c2ccc(OC)cc2)oc1C)S(=O)(=O)c1ccc(Cl)cc1`, the activation was inactive: -7.83%.
As to `COc1ccc(N2CCN(C(=O)c3cccn4c(=O)c5ccc(Cl)cc5nc34)CC2)cc1`, the activation was inactive: -12.6%.
As for `CCN1C(=O)c2ccccc2Sc2ccc(NC(=O)Nc3ccc(C(C)=O)cc3)cc21`, the activation is inactive: 4.76%.
To `Cc1ccc2oc(=O)c3cnn(CC(=O)Nc4ccc(Br)cc4C)c3c2c1` belongs inactive: 4.38%; to `Cc1ccccc1CNCCCSc1nnnn1-c1ccccc1`, inactive: 0.237%; to `CCc1cccc(C)c1NC(=O)COCc1cc(-c2ccc3c(c2)OCO3)on1`, inactive: 11.3%.
With `C[C@]12CC[C@@H]3c4ccc(O)cc4CC[C@H]3[C@@H]1CC[C@@H]2O`, the activation was inactive: -9%.
Turning to `O=C(c1ccco1)N(Cc1cccnc1)c1nc2c(F)cccc2s1`, the activation was inactive: -28.2%.
In the case of `CC1CCCCN1C(=O)CSc1nc2ccccc2nc1Cc1ccc(Cl)cc1` (centres undefined), the activation was inactive: 6.05%.
On to `CCc1ccccc1NC(=O)C(=O)c1cc(C)n(-c2ccccc2F)c1C`, for which the activation is inactive: -27.3%.
On to `Cc1cc(C)c(Cn2c(C)c(CNCc3ccccc3C)c(C(=O)O)c2C)c(C)c1`, for which the activation is inactive: 11.2%.
Take `Cc1nn(CC(=O)NCc2cccc(F)c2)c(=O)c2c(C)n(-c3ccc(Cl)cc3)nc12`: the activation was inactive: -13.7%.
As to `COc1ccccc1Oc1nc2c(C)cccn2c(=O)c1/C=C(\C#N)c1nc2ccccc2[nH]1`, the activation is inactive: 1.86%.
As to `CCOC(=O)C1=C(CN2CCN(c3cc(C)ccc3C)CC2)NC(=O)NC1c1ccccc1` (centres undefined), the activation is inactive: -23.4%.
Take `COc1ccc(N(C(=O)c2ccccc2C)S(=O)(=O)c2ccc(C)cc2)cc1`: the activation was inactive: -13.3%.
To `Cc1ccc2c(c1)c1c(c(=O)n(-c3ccccc3)c(=O)n1CC(=O)NCCC1=CCCCC1)n2C` belongs inactive: -7.3%.
`CC1CN(C(=O)CCC(=O)NCc2cccs2)c2cc(Cl)ccc2O1` (centres undefined): the activation is inactive: -23.6%.
For the molecule `COc1ccc(-n2cc(C(=O)NCc3ccc(Cl)cc3)c3ccccc3c2=O)cc1`, the activation was inactive: -17.4%.
For `COc1ccc2nc(N(Cc3cccnc3)C(=O)c3ccco3)sc2c1` the value was inactive: -18%; for `CC(C)(C)NCC(O)COc1ccc(NC(=O)NC2CCCCC2)cc1` (centres undefined), inactive: -8.93%; for `Cc1ccc(CCNC(=O)c2cc3sccc3n2Cc2ccc(Cl)cc2)cc1`, inactive: -4.63%.
To `CCOC(=O)c1cc(-c2ccc(C)cc2)n(CC(=O)Nc2ccc(OC)c(Cl)c2)c1C` belongs inactive: 33.6%.
Take `COc1cccc(CN2C(=O)C3(SCC(=O)N3c3cc(C)cc(C)c3)c3ccccc32)c1` (centres undefined): the activation is inactive: -13.4%.
Take `O=C(c1ccc2c(c1)OCCO2)N(Cc1cccnc1)c1nc2ccc(Cl)cc2s1`: the activation was inactive: 3.15%.
With `COc1ccccc1N1CCN(S(=O)(=O)c2cc(-c3cc(C)no3)ccc2C)CC1`, the activation is inactive: -4.73%.
To `Cc1ccc(-c2nnn(CC(=O)N(CC(=O)NCCC(C)C)c3ccc(F)cc3)n2)cc1` belongs inactive: -5.33%; to `CCC(C)NC(=O)c1ccccc1NC(=O)C1CCN(S(=O)(=O)Cc2ccccc2)CC1` (centres undefined), inactive: 1.66%.
`COc1ccc(S(=O)(=O)Nc2cc(-c3cn4cccc(C)c4n3)ccc2C)cc1C`: the activation is inactive: 0.0923%.
For `CCCCCOC(=O)c1ccc(Nc2nc(C(=O)OCC)nc3ccccc23)cc1`, the activation is inactive: -6.24%.
For `Cc1ccc(C(C)C)c(OCC(=O)Nc2nc3c(s2)CCCC3)c1`, the activation is inactive: -23.6%.
On to `CCN(CC)C(=O)c1cccc(C)c1`, for which the activation is inactive: 12%.
For `Cc1coc2c1c(C)cc1oc(=O)c(CC(=O)NCc3ccc(Cl)cc3)c(C)c12` the value was inactive: -8.57%; for `O=C(NCCc1ccc(F)cc1)C(=O)NCC(c1ccc2c(c1)OCO2)N1CCOCC1` (centres undefined), inactive: -17.5%.
For `Cc1ccc2nc(-c3c[nH]c4ccccc34)c(Nc3ccccc3)n2c1`, the activation was inactive: -5.12%.
For `CCOC(=O)c1nc(Nc2ccccc2C)c2ccccc2n1` the value was inactive: -4.82%; for `O=C(NCc1noc2ccccc12)Nc1ccc(F)cc1F`, inactive: 6.39%; for `Cc1cccc(NC(=O)C2CCCN(c3nnc(-n4c(C)ccc4C)s3)C2)c1C` (centres undefined), inactive: -19.4%.
Take `CCOc1cccc(C2c3[nH]c4ccccc4c3CCN2C(=O)CCc2ccccc2)c1` (centres undefined): the activation was inactive: -37.5%.
On to `CCN(CC)c1ccc(C(=O)N2CCC(c3ccncc3)CC2)cc1`, for which the activation was inactive: 2.34%.
For `O=C(Nc1nc2ccc(Cl)cc2s1)c1ccc(S(=O)(=O)N2CCCC2)cc1` the value was inactive: -0.844%; for `CCN(CC)S(=O)(=O)c1ccc2nc(NC(=O)c3ccc(Br)o3)sc2c1`, inactive: 21.4%.
With `CC1CC2C3CCC4=CC(=O)C=C[C@]4(C)[C@@]3(F)[C@@H](O)C[C@]2(C)[C@@]1(O)C(=O)CO` (some centres undefined), the activation is inactive: 10.6%.
In the case of `CCCN(C(=O)Cn1c(=O)oc2cc(Cl)ccc21)c1ccc(C(C)C)cc1`, the activation was inactive: -24.3%.
In the case of `CCOC(=O)C1CCCN(C(=O)c2ccc3c(c2)N(Cc2cccc(Cl)c2)C(=O)c2ccccc2S3(=O)=O)C1` (centres undefined), the activation is inactive: -35.1%.
Take `COc1ccc(C)cc1NC(=O)CN1C(=O)COc2ccc(S(=O)(=O)N3CCCCCC3)cc21`: the activation is inactive: -27.8%.

Source of the values: PubChem BioAssay AID1346428 (National Center for Advancing Translational Sciences (NCATS), 2018).
